# Experimental data: the BET-seq Pho4 binding data (Le et al. 2018)
# Some of the results follow. Values were computed here from the reads of four pooled replicates and scatter widely.
# Target: T1, Pho4 (S. cerevisiae) (UniProt P07270)
# T1 sequence: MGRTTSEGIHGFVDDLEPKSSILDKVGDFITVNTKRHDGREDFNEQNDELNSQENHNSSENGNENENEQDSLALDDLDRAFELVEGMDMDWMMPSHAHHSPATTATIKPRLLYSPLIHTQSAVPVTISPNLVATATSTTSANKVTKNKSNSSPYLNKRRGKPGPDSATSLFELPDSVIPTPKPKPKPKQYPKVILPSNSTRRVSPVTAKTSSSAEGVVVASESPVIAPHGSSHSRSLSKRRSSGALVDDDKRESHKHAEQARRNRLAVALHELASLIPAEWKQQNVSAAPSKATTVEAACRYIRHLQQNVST
# Assay: relative binding free energy (BET-seq); higher = weaker binding
# Settings: reference: library average
row,Sequence,relative binding free energy
1,AGGTGCACGTGATAGC,0.02 kcal/mol
2,TGGAACACGTGGGGAT,-0.02 kcal/mol
3,TTGTACACGTGGGAGA,0.08 kcal/mol
4,TTTGGCACGTGTCTAG,-0.08 kcal/mol
5,CGTTTCACGTGCGGGC,0.18 kcal/mol
6,GTTTCCACGTGGGTAT,-0.07 kcal/mol
7,GGCTACACGTGGTGGC,0.08 kcal/mol
8,TTTTCCACGTGTAATG,0.1 kcal/mol
9,ATATTCACGTGGCGGT,0.29 kcal/mol
10,TAAATCACGTGAGGTT,0.43 kcal/mol
11,TGATACACGTGCCGGG,0.04 kcal/mol
12,GTATTCACGTGGGGCT,0.2 kcal/mol
13,TTAGTCACGTGTTACT,0.18 kcal/mol
14,AAGGTCACGTGAGATA,0.37 kcal/mol
15,ATCGGCACGTGTGAAG,0.16 kcal/mol
16,TTGCGCACGTGATTTT,0.27 kcal/mol
17,TGGCGCACGTGGAGCG,-0.15 kcal/mol
18,GGTAACACGTGCCGGT,0.11 kcal/mol
19,ATAATCACGTGTAGAA,0.27 kcal/mol
20,GTATGCACGTGGTGGC,0 kcal/mol
21,CATGCCACGTGTTGGT,-0.06 kcal/mol
22,TGAGTCACGTGGGAGT,-0.03 kcal/mol
23,CGGTTCACGTGGTTGT,0.14 kcal/mol
24,TGTAGCACGTGGCGTC,-0.02 kcal/mol
25,CAATTCACGTGTGGTT,0.17 kcal/mol
26,TGAGGCACGTGTGACG,-0.08 kcal/mol

row,Sequence,relative binding free energy
1,GGGTACACGTGAAGCG,0.22 kcal/mol
2,TGAGGCACGTGGAGTG,-0.1 kcal/mol
3,TTGCGCACGTGGGATA,-0.22 kcal/mol
4,ATCGACACGTGGTGGA,0.02 kcal/mol
5,AGGAGCACGTGTGGGA,-0.06 kcal/mol
6,TCTACCACGTGGGGTG,-0.24 kcal/mol
7,TAGCGCACGTGTTTTG,-0.09 kcal/mol
8,GTGGCCACGTGTAGGC,-0.04 kcal/mol
9,GGGTTCACGTGTTTTC,0.42 kcal/mol
10,TCGGGCACGTGTTTTG,0.06 kcal/mol
11,TGAAGCACGTGGGCTG,-0.3 kcal/mol
12,GCGCTCACGTGTGATG,0.52 kcal/mol
13,GTGGTCACGTGCGGTG,0.17 kcal/mol
14,AGGTGCACGTGGCGGC,-0.04 kcal/mol
15,TGTGTCACGTGTATGC,0.01 kcal/mol
16,TCGGACACGTGTGTGG,-0.02 kcal/mol
17,AGTGTCACGTGAGAAT,0.3 kcal/mol
18,TGGCACACGTGGTGAA,0.08 kcal/mol
19,GGAATCACGTGTGAGA,0.32 kcal/mol
20,AGGGTCACGTGGAGAA,0.19 kcal/mol
21,CAGTTCACGTGGTTTA,0.14 kcal/mol
22,CATGTCACGTGTCGTG,0.05 kcal/mol
23,ATCAACACGTGTGTTT,0.04 kcal/mol
24,GTATGCACGTGGTATT,-0.07 kcal/mol
25,TGATCCACGTGTTTGG,0.07 kcal/mol
26,TATAGCACGTGCGGGG,-0.17 kcal/mol

row,Sequence,relative binding free energy
1,TTGCTCACGTGGGGGG,0.11 kcal/mol
2,GGTTACACGTGAAATG,0.49 kcal/mol
3,TTTGTCACGTGTTCAA,0.01 kcal/mol
4,TTGAGCACGTGTGTGA,-0.09 kcal/mol
5,AGGTTCACGTGCTGGG,0.24 kcal/mol
6,CTTTTCACGTGTCTTT,0.26 kcal/mol
7,CTGCTCACGTGAGTGT,0.24 kcal/mol
8,TCGATCACGTGGGAGT,0.02 kcal/mol
9,AGGTTCACGTGAGACT,0.33 kcal/mol
10,TGTCGCACGTGGCGTA,-0.19 kcal/mol
11,GTATTCACGTGTGGTG,0.28 kcal/mol
12,CGGGTCACGTGGATCG,0.12 kcal/mol
13,GTACGCACGTGGGGGT,-0.15 kcal/mol
14,TTATTCACGTGGTGCA,0.05 kcal/mol
15,GGTCGCACGTGTTTAG,0.04 kcal/mol
16,CGTTTCACGTGCGGTC,0.26 kcal/mol
17,ATTGGCACGTGTGTCA,-0.17 kcal/mol
18,TTGCACACGTGGTTTG,-0.06 kcal/mol
19,TCTGTCACGTGTGTTG,0.14 kcal/mol
20,TTGTACACGTGTGGGG,0.18 kcal/mol
21,TAGTTCACGTGGTTGC,0.28 kcal/mol
22,CCGGGCACGTGAATGG,0.16 kcal/mol
23,CGTATCACGTGTTTTG,0.13 kcal/mol
24,GAGGTCACGTGCGTCG,0.1 kcal/mol
25,TGCATCACGTGGGTAG,-0.05 kcal/mol
26,AATGACACGTGGGAAT,-0.02 kcal/mol

row,Sequence,relative binding free energy
1,CGGATCACGTGGGGGT,-0.09 kcal/mol
2,ATGGTCACGTGGAGGC,0.03 kcal/mol
3,CTGAGCACGTGTTTGT,-0.18 kcal/mol
4,GATTGCACGTGATGTG,0.25 kcal/mol
5,CGGCTCACGTGGCGGT,0.11 kcal/mol
6,TTGCTCACGTGGGTAA,-0.02 kcal/mol
7,ACTAGCACGTGTATGT,-0.12 kcal/mol
8,TTGTACACGTGGGTGT,-0.06 kcal/mol
9,TTGGACACGTGATAAG,0.3 kcal/mol
10,CTTACCACGTGGGGGT,-0.23 kcal/mol
11,GTGTTCACGTGTATAA,0.08 kcal/mol
12,GAGTACACGTGAGGTT,0.44 kcal/mol
13,AGGCGCACGTGTGTGC,0.03 kcal/mol
14,AAGTACACGTGTTTGT,0.05 kcal/mol
15,AAAGTCACGTGGGGTA,-0.14 kcal/mol
16,AGGGTCACGTGACGTG,0.11 kcal/mol
17,TTTGACACGTGGTAAA,-0.02 kcal/mol
18,TAGGACACGTGGTGAT,0.04 kcal/mol
19,GGTCACACGTGGCAGG,0.13 kcal/mol
20,TTAAGCACGTGTACGG,-0.16 kcal/mol
21,CATGTCACGTGGTTTG,0.06 kcal/mol
22,GTGCCCACGTGCGGGG,-0.13 kcal/mol
23,AGTGTCACGTGCTAGT,-0.03 kcal/mol
24,AAGGGCACGTGTGCGC,-0.13 kcal/mol
25,GTTGCCACGTGAATAG,0.39 kcal/mol
26,CTGTACACGTGTGGGT,0.12 kcal/mol

row,Sequence,relative binding free energy
1,AATGTCACGTGATGCT,0.19 kcal/mol
2,CTTATCACGTGTAGGG,0.04 kcal/mol
3,AGGGTCACGTGGAAGG,0.18 kcal/mol
4,GGTTTCACGTGGCAAG,0.18 kcal/mol
5,TGTATCACGTGGATCT,0.18 kcal/mol
6,AGTTTCACGTGGGCGA,0.21 kcal/mol
7,TTCACCACGTGTTTGG,0.09 kcal/mol
8,AAGTCCACGTGAGTTT,0.46 kcal/mol
9,GTGGTCACGTGCAAAG,0.22 kcal/mol
10,TCGGCCACGTGTAGTG,0.16 kcal/mol
11,GAGGGCACGTGTAGCT,-0.12 kcal/mol
12,ATTGGCACGTGCGCGG,-0.35 kcal/mol
13,AATGTCACGTGTGGGA,0.15 kcal/mol
14,TTATTCACGTGGGGCG,0.22 kcal/mol
15,AGTTGCACGTGTGGCT,0.01 kcal/mol
16,TTTTGCACGTGGCCAG,-0.04 kcal/mol
17,AGTGTCACGTGGATAG,0.01 kcal/mol
18,TTATACACGTGGAGGA,0.11 kcal/mol
19,TTAACCACGTGGTGTT,-0.05 kcal/mol
20,ACGTTCACGTGATTGT,0.16 kcal/mol
21,TGTTGCACGTGTTAGA,0.02 kcal/mol
22,GGTGCCACGTGTGAGG,0.02 kcal/mol
23,GTGGGCACGTGACGGG,0.09 kcal/mol
24,AGTGTCACGTGTAAGT,0.23 kcal/mol
25,TTATTCACGTGATTGA,0.21 kcal/mol
26,TGTTGCACGTGTTTTT,0.02 kcal/mol

row,Sequence,relative binding free energy
1,GTCATCACGTGAGTGG,0.29 kcal/mol
2,AAAGTCACGTGAGATG,0.19 kcal/mol
3,GTGGTCACGTGACAGT,0.18 kcal/mol
4,GGTGGCACGTGTATAG,-0.08 kcal/mol
5,AGTTGCACGTGATTAG,0.08 kcal/mol
6,TCAGACACGTGGTGGT,-0.03 kcal/mol
7,TGTGCCACGTGTGTTG,-0.1 kcal/mol
8,TGGATCACGTGTTGAA,0.22 kcal/mol
9,GGGTCCACGTGGCTGG,0.1 kcal/mol
10,ATATACACGTGAGTAT,0.19 kcal/mol
11,AGAGTCACGTGGGACG,0.11 kcal/mol
12,GGGAACACGTGGGGAC,0.05 kcal/mol
13,TTGATCACGTGAATTT,0.35 kcal/mol
14,TTCGTCACGTGAATGA,0.34 kcal/mol
15,TGTATCACGTGTTGTA,0.09 kcal/mol
16,CAGTGCACGTGAGTGT,0.06 kcal/mol
17,GGTGTCACGTGTGTAA,0.12 kcal/mol
18,TTTTGCACGTGGAGAA,0.08 kcal/mol
19,AAATGCACGTGAGGAT,0.37 kcal/mol
20,CTGGGCACGTGATATA,0.03 kcal/mol
21,AGTAGCACGTGCTTTT,-0.13 kcal/mol
22,AATGGCACGTGGTGTG,-0.28 kcal/mol
23,AAGATCACGTGGGGTA,-0.13 kcal/mol
24,GGGAACACGTGTCGGG,0.14 kcal/mol
25,TATTTCACGTGATGCG,0.23 kcal/mol
26,CATGTCACGTGATTGT,0.15 kcal/mol

row,Sequence,relative binding free energy
1,CGGGTCACGTGGTGGC,-0.01 kcal/mol
2,GTTAGCACGTGTGATT,0.08 kcal/mol
3,AGTTTCACGTGTAGTC,0.26 kcal/mol
4,GGAAACACGTGTTAGT,0.09 kcal/mol
5,TTATGCACGTGTTGAC,0.04 kcal/mol
6,GACTGCACGTGGGGGA,-0.13 kcal/mol
7,TAGGTCACGTGTATTC,0.13 kcal/mol
8,TTTCGCACGTGGGCAT,-0.21 kcal/mol
9,ATATACACGTGTAGTT,-0.02 kcal/mol
10,TTTCACACGTGTATAT,0.02 kcal/mol
11,GGGTGCACGTGATGGA,0.08 kcal/mol
12,GATGACACGTGGGGTT,0.04 kcal/mol
13,TTGATCACGTGTGGGA,0.13 kcal/mol
14,AGTGTCACGTGTATCG,0.04 kcal/mol
15,AGCAGCACGTGTTTTT,-0.02 kcal/mol
16,CGGTTCACGTGAGAAT,0.43 kcal/mol
17,ATATTCACGTGAGAGT,0.19 kcal/mol
18,CTATCCACGTGGGTGG,-0.1 kcal/mol
19,GTAATCACGTGAGAGG,0.42 kcal/mol
20,TTGCTCACGTGCTGTT,0.12 kcal/mol
21,TGTCGCACGTGAGGGG,0.19 kcal/mol
22,CTAGTCACGTGTTGAA,0.17 kcal/mol
23,AAAATCACGTGGGTGA,0.03 kcal/mol
24,CGTAGCACGTGCGTTT,-0.09 kcal/mol
25,GTTTTCACGTGTAGCT,0.33 kcal/mol
26,GCTGACACGTGGGGTT,0 kcal/mol

row,Sequence,relative binding free energy
1,TTTCTCACGTGAGGTC,0.42 kcal/mol
2,TCATGCACGTGGGGAG,-0.2 kcal/mol
3,TCTGGCACGTGACTTG,0.04 kcal/mol
4,GGGGGCACGTGCATCT,0.04 kcal/mol
5,GGTGTCACGTGCGAAG,0.02 kcal/mol
6,AGGAGCACGTGTTGAT,-0.35 kcal/mol
7,AGGATCACGTGGAGTC,0.21 kcal/mol
8,GTTATCACGTGAGTCG,0.39 kcal/mol
9,TTTTTCACGTGGCGGC,0.23 kcal/mol
10,TAGGTCACGTGTTGGC,0.03 kcal/mol
11,GTAGTCACGTGGGTGA,0 kcal/mol
12,CTTGGCACGTGGGGGA,-0.31 kcal/mol
13,TTGCGCACGTGGGGTA,-0.22 kcal/mol
14,GCTGGCACGTGGAGAG,0.05 kcal/mol
15,GAGGTCACGTGTTACT,0.35 kcal/mol
16,ATTTACACGTGTGTAA,0.08 kcal/mol
17,TACAGCACGTGTTAGG,-0.21 kcal/mol
18,TCGATCACGTGAGGGG,0.23 kcal/mol
19,TGAGTCACGTGTAGAG,0.13 kcal/mol
20,ATTGCCACGTGGTAGG,-0.22 kcal/mol
21,TGGTTCACGTGCGTGC,0.24 kcal/mol
22,CGGAGCACGTGGGATT,-0.01 kcal/mol
23,GCTTGCACGTGGTGAT,0.01 kcal/mol
24,TGGCACACGTGTGGAT,0.04 kcal/mol
25,TAGTTCACGTGGGCGG,0.3 kcal/mol
26,GGTTCCACGTGGTATG,0.1 kcal/mol

row,Sequence,relative binding free energy
1,CAGTTCACGTGAAGGG,0.35 kcal/mol
2,CTTGACACGTGAGGGT,0.19 kcal/mol
3,AGGCTCACGTGAGGTT,0.44 kcal/mol
4,TTTGACACGTGGGATT,0.15 kcal/mol
5,AGTTTCACGTGAATTG,0.37 kcal/mol
6,GGTCACACGTGGTGTT,0.11 kcal/mol
7,GGGGGCACGTGCGTCT,-0.2 kcal/mol
8,TTGGTCACGTGGCGGA,0.01 kcal/mol
9,CAATGCACGTGAGAGT,0.34 kcal/mol
10,TCGGCCACGTGAGGGG,0.08 kcal/mol
11,TATAGCACGTGATGGT,0.22 kcal/mol
12,CTTGTCACGTGTACGT,0.2 kcal/mol
13,AACGGCACGTGGTTAG,-0.06 kcal/mol
14,AGGTGCACGTGTAAGT,0.06 kcal/mol
15,GTACGCACGTGGTTGC,-0.01 kcal/mol
16,AATTCCACGTGGAGGT,0.16 kcal/mol
17,GTGAGCACGTGCGGGC,-0.14 kcal/mol
18,GGGCTCACGTGCGGTT,0.28 kcal/mol
19,ATAGTCACGTGTGTAT,0.05 kcal/mol
20,CGGATCACGTGAATGG,0.4 kcal/mol
21,AGGTTCACGTGTATAA,0.14 kcal/mol
22,TGAATCACGTGGTTGT,0.14 kcal/mol
